{"source": "the RNAGym collection of RNA variant scans (doi:10.1073/pnas.2313332121)", "parents": {"B1": {"name": "TPR 5TU (parent)", "chain": "GGAUCUUCUCGAUCUAACAAAAAAGACAAAUCUGCCACAAAGCUUGAGAGCAUCUUCGGAUGCAGAGGCGGCAGCCUUCGGUGGCGCGAUAGCGCCAACGUUCUCAACUAUGACACGCAAAACGCGUGCUCCGUUGAAUGGAGUUUAUCAUG"}}, "note": "Variants at the floor of the assay are shown more often than the library holds them."}
{"variants_of": "B1", "experiment": "polymerase ribozyme fitness, log enrichment relative to wild type (log ratio); higher = more active; in vitro selection for triplet polymerase activity", "outline": "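Each subunit of a heterodimeric triplet polymerase ribozyme was represented by a PCR-built, transcribed mutant library that underwent triplicate single-round in vitro selection with frozen incubation at −7 °C. Extended constructs were recovered by gel excision, streptavidin-bead capture and RT-PCR, and Illumina sequencing of input and output libraries kept genotypes with ≥10 input reads and ≥1 read per output. Fitness is the logarithm of genotype enrichment relative to wild-type enrichment, from inverse-variance-weighted replicate averages, with a logarithm base of 2.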"}
{"variant": "U44A U45G C76A C93U A121U U127C U148C", "polymerase ribozyme fitness (log ratio)": "≤ -4.2"}
{"variant": "U44A A52C G83C C95U U135G U148A", "polymerase ribozyme fitness (log ratio)": "≤ -4.2"}
{"variant": "C43U G88C A115G", "polymerase ribozyme fitness (log ratio)": "≤ -4.2"}
{"variant": "C43G U56G C96U U139G U148G", "polymerase ribozyme fitness (log ratio)": "≤ -4.2"}
{"variant": "U44A G94C A107G G140U G143C U145G", "polymerase ribozyme fitness (log ratio)": "≤ -4.2"}
{"variant": "C43U C95A", "polymerase ribozyme fitness (log ratio)": -4.15}
{"variant": "U44G A52G C85G", "polymerase ribozyme fitness (log ratio)": "≤ -4.2"}
{"variant": "U44G U55G G74U G86U", "polymerase ribozyme fitness (log ratio)": "≤ -4.2"}
{"variant": "U45A A49U C75A G83C C87G", "polymerase ribozyme fitness (log ratio)": "≤ -4.2"}
{"variant": "U44G U135A", "polymerase ribozyme fitness (log ratio)": -3.83}
{"variant": "U44C A47G G83A A97G A107G A110C C114G", "polymerase ribozyme fitness (log ratio)": "≤ -4.2"}
{"variant": "U45A A73C G92A C95G", "polymerase ribozyme fitness (log ratio)": "≤ -4.2"}
{"variant": "C43U G59A", "polymerase ribozyme fitness (log ratio)": "≤ -4.2"}
{"variant": "U44A C75U U82G U135G", "polymerase ribozyme fitness (log ratio)": "≤ -4.2"}
{"variant": "U45A A49G G84U A115G A120G", "polymerase ribozyme fitness (log ratio)": "≤ -4.2"}
{"variant": "U44G C57U C95U C99A G133C U145G", "polymerase ribozyme fitness (log ratio)": "≤ -4.2"}
{"variant": "C43U G62C G67U C103G A122G C131A", "polymerase ribozyme fitness (log ratio)": "≤ -4.2"}
{"variant": "U44A A49G C54A U82C G124U G140A", "polymerase ribozyme fitness (log ratio)": "≤ -4.2"}
{"variant": "C43U C51U G59A G83U G86C C95A", "polymerase ribozyme fitness (log ratio)": "≤ -4.2"}
{"variant": "C43U G71A", "polymerase ribozyme fitness (log ratio)": "≤ -4.2"}
{"variant": "U45A A66G U77G U109G A120C C132U A142C U146G", "polymerase ribozyme fitness (log ratio)": "≤ -4.2"}
{"variant": "C43G U56A C76A", "polymerase ribozyme fitness (log ratio)": "≤ -4.2"}
{"variant": "U44G U77G U90A", "polymerase ribozyme fitness (log ratio)": "≤ -4.2"}
{"variant": "U44A G48C G81A A89G C108G C118G C125U", "polymerase ribozyme fitness (log ratio)": "≤ -4.2"}
{"variant": "U44G U56A G84U", "polymerase ribozyme fitness (log ratio)": "≤ -4.2"}
{"variant": "U44A C85A G92A A107U G128U", "polymerase ribozyme fitness (log ratio)": "≤ -4.2"}
{"variant": "C43U C72U G84A A110C", "polymerase ribozyme fitness (log ratio)": "≤ -4.2"}
{"variant": "C43U G58U U78A U82G C129A U145G", "polymerase ribozyme fitness (log ratio)": "≤ -4.2"}
{"variant": "U44G A49C G50C U82A G94C", "polymerase ribozyme fitness (log ratio)": "≤ -4.2"}
{"variant": "U45A C54U C99A A110U C116G", "polymerase ribozyme fitness (log ratio)": "≤ -4.2"}
{"variant": "U44C C99G", "polymerase ribozyme fitness (log ratio)": "≤ -4.2"}
{"variant": "U45A A73C C96A A113U A115U U145C", "polymerase ribozyme fitness (log ratio)": "≤ -4.2"}
{"variant": "U44A A49G C57U C93U C95A G141U", "polymerase ribozyme fitness (log ratio)": "≤ -4.2"}
{"variant": "U44C G68C G83C C108G", "polymerase ribozyme fitness (log ratio)": "≤ -4.2"}
{"variant": "U44A A52G G94U G117U A150G", "polymerase ribozyme fitness (log ratio)": "≤ -4.2"}
{"variant": "U44G A73G A91G A107C", "polymerase ribozyme fitness (log ratio)": "≤ -4.2"}
{"variant": "U45A A52G C87G U109A", "polymerase ribozyme fitness (log ratio)": "≤ -4.2"}
{"variant": "U44A C75U G92A C123U U145C", "polymerase ribozyme fitness (log ratio)": "≤ -4.2"}
{"variant": "C43U C54U U61A A64C G84U U127A C131G A142G", "polymerase ribozyme fitness (log ratio)": "≤ -4.2"}
{"variant": "U44A U56G G83U A89U C95A A98C C103G A107G", "polymerase ribozyme fitness (log ratio)": "≤ -4.2"}
{"variant": "U44A A52C C85U A106U G126U C131G", "polymerase ribozyme fitness (log ratio)": "≤ -4.2"}
{"variant": "C43U U61A C96A", "polymerase ribozyme fitness (log ratio)": "≤ -4.2"}
{"variant": "U44A A47G U55A U90G C96U A115G", "polymerase ribozyme fitness (log ratio)": "≤ -4.2"}
{"variant": "U44A C79U C87A", "polymerase ribozyme fitness (log ratio)": "≤ -4.2"}
{"variant": "U45A A47C G50C A73U C93G C99U G140A", "polymerase ribozyme fitness (log ratio)": "≤ -4.2"}
{"variant": "C43G U53A G83U C95A", "polymerase ribozyme fitness (log ratio)": "≤ -4.2"}
{"variant": "U44G G50A C57G C72G C114A G140C", "polymerase ribozyme fitness (log ratio)": "≤ -4.2"}
{"variant": "U44A U45A C54G G86A A91U G100C A110U G117U", "polymerase ribozyme fitness (log ratio)": "≤ -4.2"}
{"variant": "C43U C57U C76A C79A G92C U101G A122U", "polymerase ribozyme fitness (log ratio)": "≤ -4.2"}
{"variant": "U44A A91U C132G U146A", "polymerase ribozyme fitness (log ratio)": "≤ -4.2"}
{"variant": "C43U C96A U109A A115G G124A", "polymerase ribozyme fitness (log ratio)": "≤ -4.2"}
{"variant": "U44G G70C G83A C116A G152A", "polymerase ribozyme fitness (log ratio)": "≤ -4.2"}
{"variant": "U45A A73G C85G A89G C108A", "polymerase ribozyme fitness (log ratio)": "≤ -4.2"}
{"variant": "U44A G46C G48U U55A C87G A119C A137C G140U", "polymerase ribozyme fitness (log ratio)": "≤ -4.2"}
{"variant": "U44A A91G U135C U144C", "polymerase ribozyme fitness (log ratio)": "≤ -4.2"}
{"variant": "C43U G74A C85G U139A A142G", "polymerase ribozyme fitness (log ratio)": "≤ -4.2"}
{"variant": "C43U C51U C95A U109G", "polymerase ribozyme fitness (log ratio)": "≤ -4.2"}
{"variant": "U45A C69U C85U U90C A119C", "polymerase ribozyme fitness (log ratio)": "≤ -4.2"}
{"variant": "C43G U61G G74C", "polymerase ribozyme fitness (log ratio)": "≤ -4.2"}
{"variant": "U44A G50C G81A U135A", "polymerase ribozyme fitness (log ratio)": "≤ -4.2"}
{"variant": "C43U A113G", "polymerase ribozyme fitness (log ratio)": "≤ -4.2"}
{"variant": "U44G A52C G92U G141A", "polymerase ribozyme fitness (log ratio)": "≤ -4.2"}
{"variant": "U44G A73U C85U G124U U134C U135G C149G", "polymerase ribozyme fitness (log ratio)": "≤ -4.2"}
{"variant": "U44A U134A", "polymerase ribozyme fitness (log ratio)": "≤ -4.2"}
{"variant": "U45A A73G A110U", "polymerase ribozyme fitness (log ratio)": "≤ -4.2"}
{"variant": "C43U A98G U102G U111C A138C", "polymerase ribozyme fitness (log ratio)": "≤ -4.2"}
{"variant": "U45A C69A G88C A97C C125G", "polymerase ribozyme fitness (log ratio)": "≤ -4.2"}
{"variant": "C43U C79A", "polymerase ribozyme fitness (log ratio)": -4.15}
{"variant": "U44C G50U U101G C131U U139C C149U", "polymerase ribozyme fitness (log ratio)": "≤ -4.2"}
{"variant": "U45A A47C U61A G92A C114A C123G U146G", "polymerase ribozyme fitness (log ratio)": "≤ -4.2"}
{"variant": "C43U U55A C87U", "polymerase ribozyme fitness (log ratio)": "≤ -4.2"}
{"variant": "U44A A89U G92C C103G", "polymerase ribozyme fitness (log ratio)": "≤ -4.2"}
{"variant": "U44A C87A G126U", "polymerase ribozyme fitness (log ratio)": "≤ -4.2"}
{"variant": "C43U A91G", "polymerase ribozyme fitness (log ratio)": "≤ -4.2"}
{"variant": "U44A A66C G81A C96G C108A G117U U146G", "polymerase ribozyme fitness (log ratio)": "≤ -4.2"}
{"variant": "C43U C72U C93G C95U", "polymerase ribozyme fitness (log ratio)": "≤ -4.2"}
{"variant": "U45A A52U G70A C87A C116A C118U U135G G141A", "polymerase ribozyme fitness (log ratio)": "≤ -4.2"}
{"variant": "U44A G48C G59A U82C C116G C123U U134C", "polymerase ribozyme fitness (log ratio)": "≤ -4.2"}
{"variant": "C43U G84A U104G C132G U135A A137G G143A G152C", "polymerase ribozyme fitness (log ratio)": "≤ -4.2"}
{"variant": "U44G A49U G84A U90G C131U U135G G136A", "polymerase ribozyme fitness (log ratio)": "≤ -4.2"}
{"variant": "U44A C54A C79U C93U", "polymerase ribozyme fitness (log ratio)": "≤ -4.2"}
{"variant": "C43U A47U G59A C75A C93U G126C G133A", "polymerase ribozyme fitness (log ratio)": "≤ -4.2"}
{"variant": "C43U U134A", "polymerase ribozyme fitness (log ratio)": "≤ -4.2"}
